The record followed here is PubChem BioAssay AID2071 (Sanford-Burnham Center for Chemical Genomics, 2009).

The inhibition is the relative decrease from the control value, in per cent.

Some of the results follow. Shown are side measurements of this screen, not its main read-out; they come without a call. The list favours compounds with an active or inconclusive main result.

The nature of this assay: NALP1 inflammasome inhibitors in reconstituted yeast, colorimetric, S. cerevisiae, triplicate retest (AID 2071). As to conditions: S. cerevisiae NALP1/ASC/caspase-1 growth, X-gal OD620, 72 h, at 20 µM, stronger effect = higher value.
In the case of `Oc1c(Br)cc(Br)cc1C=Nc1cccnc1`, the inhibition was determined as 92.1%.
The same measure for `Nc1c(Cl)ncnc1N/N=C/c1ccccn1`: 73.2%; for `COc1cc(NC(C)CCCN)c2ncccc2c1Oc1ccccc1` (configuration not stated): 80.9%.
In the case of `Oc1c(Cl)cc(Cl)c2c1NCCC2`, the inhibition worked out at 96.6%.
Next, `CCCCCCCCCCCCCCCC[n+]1ccc(C(N)=O)cc1`: 99.2%; `CCN(CC)c1ccc(N=Cc2ccc([N+](=O)[O-])o2)cc1`: 88.2%.
`Cc1cc(Cl)c(OCCOCCN2CCC(C)CC2)c(Br)c1`: the inhibition worked out at 51.1%.
Next, `CC(=O)N1N=C(c2ccc3ccccc3c2)OC1(C)C`: 55.3%.
On to `Cc1cc(Br)ccc1OCCn1ccnc1`, for which the inhibition was determined as 51.5%.
Next, `Clc1ccc(OCCCNCc2ccccc2)c2ccccc12`: 110%.
Regarding `Cc1cc(C)n(C(C[N+](=O)[O-])c2ccc(Cl)cc2)n1` (configuration not stated), the inhibition stood at 105%.
Next, `Clc1ccc(OCCOCCN2CCc3ccccc3C2)c(Cl)c1`: 102%; `COc1ccccc1OCC(=O)NCCSCc1ccc(Cl)cc1`: 64.9%.
Next, `CCCCNCCOCCOc1ccc(Cl)cc1Br`: 55.8%.
The same measure for `CS(=O)(=O)c1nc(-c2ccco2)cc(C(F)(F)F)n1`: 113%.
`CN(C)c1ccc(/C=C/c2ccc3ccccc3[n+]2C)cc1`: the inhibition was 99.3%.
Next, `O=C1/C(=C/c2ccccc2)CCCc2ccccc21`: 55.9%; `COc1ccccc1OCCN1CSC(=S)N(C)C1`: 114%; `Cc1ccc(C(C[N+](=O)[O-])c2c(C)[nH]n(-c3ccccc3)c2=O)cc1` (configuration not stated): 93.8%.
`C(=C\c1nc(N2CCCC2)c2ccccc2n1)/c1ccccc1`: the inhibition came out at 107%.
The same measure for `COc1ccc(NC(=S)N(C(C)C)C2CCN(C(C)C)CC2)cc1Cl`: 106%; for `c1ccc(-c2cccc(-c3ccccn3)n2)nc1`: 108%; for `COCCCNCCOc1ccc(C(C)(C)c2ccccc2)cc1`: 50.9%.
Turning to `O=C(NC(=S)Nc1cccnc1)c1cc2ccccc2o1`, the inhibition was 66.7%.
Turning to `CSc1ccc(/C=C/C(=O)c2ccc(NC(C)=O)cc2)cc1`, the inhibition is 53.1%.
Next, `NC(=O)/C=C\C(=O)Nc1cccc(C(F)(F)F)c1`: 115%.
The same measure for `CC(C)(C)n1nc(-c2ccc(F)cc2)c2c(N)ncnc21`: 71.2%; for `CNCc1ccccc1Sc1cc(O)ccc1O`: 79.7%; for `Cc1ccc(C(=O)O)cc1N=Cc1cc(Br)cc(Br)c1O`: 74.7%.
`CN1CCC(Oc2ccc(Sc3ccccc3)cc2)CC1`: the inhibition came out at 50.8%.
Take `CC(C)c1ccc(N2C(=O)CC(Sc3ncn[nH]3)C2=O)cc1` (configuration not stated): the inhibition worked out at 111%.
Take `CSc1ccc2c(c1)N(CCC1CCCCN1C)c1ccccc1S2` (configuration not stated): the inhibition is 102%.
The same measure for `CCOC(=O)/C=C/C(=O)Nc1cccc([N+](=O)[O-])c1`: 113%.
Next, `CCN1/C(=C/C=C/C=C/c2sc3ccccc3[n+]2CC)Sc2ccccc21`: 91%; `N/C(Cc1ccc(Cl)cc1)=N\OC(=O)C1CCCCC1`: 66%.
The same measure for `CCC(C)c1ccccc1NC(=O)CN1CCN(C/C=C/c2ccccc2)CC1` (configuration not stated): 50.4%; for `O=C(CC1Sc2ncnn2C1=O)Nc1ccc(Br)cc1` (configuration not stated): 117%; for `CNc1nc(SCc2ccccc2Cl)nc2c1CCCC2`: 110%.
On to `O=C(Nc1ccc(Br)c(Cl)c1)C1CC1`, for which the inhibition was determined as 53.4%.
Consider `O=C(Nc1cc(Cl)ccc1-n1cncn1)c1ccc([N+](=O)[O-])s1`, for which the inhibition was 95.9%.
`Cc1ccc(Nc2cc(C)nc(NCc3ccccc3)n2)cc1`: the inhibition came to 104%.
Next, `Cc1nc2c(=O)n(C)c(=O)n(C)c2nc1Cl`: 92%.
`O=S(=O)(CC(CN1CCCCC1)N1CCCCC1)c1ccc2ccccc2c1` (configuration not stated): the inhibition was determined as 111%.
The same measure for `CCCc1[nH]nc2c1C(c1ccoc1)C(C#N)=C(N)O2` (configuration not stated): 69.7%; for `Cc1[nH]n(-c2ccccc2)c(=O)c1C(C[N+](=O)[O-])c1ccc(Br)cc1` (configuration not stated): 97.7%; for `OC(CN1CCN(Cc2ccccc2)CC1)Cn1c2ccccc2c2ccccc21` (configuration not stated): 93.1%.
Next, `Cc1cc(Br)ccc1OCCCCN1CCC(C)CC1`: 65.7%; `O=C(NC(Nc1nc2ccc([N+](=O)[O-])cc2s1)(C(F)(F)F)C(F)(F)F)c1ccccc1Cl`: 96.8%.
The same measure for `CN1C/C(=C/c2ccncc2)C(=O)/C(=C/c2ccncc2)C1`: 110%; for `O=C1C=CC(=O)N1CCNc1ncc(C(F)(F)F)cc1Cl`: 112%.
Consider `CC(C)N1CCC2(CC1)N=C(c1ccc3c(c1)OCO3)CC(c1cc(Cl)ccc1O)N2` (configuration not stated), for which the inhibition stood at 99.9%.
The same measure for `CCOC(=O)COc1ccccc1/C=C\[N+](=O)[O-]`: 106%.
`C#CCN(C)CCCOc1ccc(Cl)cc1Cl`: the inhibition was 60.7%.
Next, `COc1ccc(NC(=O)CC2Sc3ncnn3C2=O)cc1` (configuration not stated): 111%; `CC[n+]1c(/C=C/c2ccc(N(C)C)cc2)ccc2ccccc21`: 97.7%; `CCCCCCCCCCOC(=O)Cn1c(COc2ccc(Cl)cc2)[n+](C)c2ccccc21`: 91.6%.
The same measure for `CCOc1ccc(N2C(=O)CC(N)C2=O)cc1` (configuration not stated): 114%.
The same measure for `CNC(=O)c1nnsc1S(=O)(=O)c1ccc(Cl)cc1`: 109%; for `CCOC(=O)c1ccc(NC(=O)CC2Sc3ncnn3C2=O)cc1` (configuration not stated): 113%.
As for `CCOC(=O)c1ccc(N2C(=O)C=CC2=O)cc1`, the inhibition turned out to be 116%.
Regarding `Cc1cc(C)cc(N2C(=O)CC(Sc3ncn[nH]3)C2=O)c1` (configuration not stated), the inhibition was 113%.
Next, `CC(C)(C)c1cc2cccnc2n1Cc1cccc(Cl)c1`: 62.7%; `Cc1ccc(OC(=S)Nc2ccc(O)cc2)cc1`: 98.3%; `Cn1cnc([N+](=O)[O-])c1S(=O)(=O)c1ccc(Cl)cc1`: 104%.
Next, `Cc1cccc(C)c1C(OCCN(C)C)C1CCCCC1` (configuration not stated): 50.9%; `Nc1nc(-c2ccc(Oc3ccccc3)cc2)cs1`: 100%.
The same measure for `COc1ccccc1OCC(=O)NCCSCc1ccccc1Cl`: 53.1%; for `Cc1ccc(S(=O)(=O)N(C(=O)c2ccncc2)c2ccc(OC(=O)c3ccncc3)c3ccccc23)cc1`: 67.6%; for `CN1CCc2cccc3c2[C@H]1Cc1ccc(O)c(O)c1-3`: 102%.
For `c1cnc2c(c1)ccc1cccnc12`, the inhibition worked out at 94%.
Next, `CCOc1ccccc1NC(=O)/C=C/C(N)=O`: 110%; `CN(C)C(C)(C)C#CCC(c1ccccc1)c1ccccc1`: 61%.
Consider `O=C(Nc1ccc(Cl)c(Cl)c1)Oc1ccc(NC(=O)c2ccco2)cc1`, for which the inhibition came out at 61.2%.
On to `OC(CNCCC1C=Nc2ccccc21)Cn1c2ccc(Cl)cc2c2cc(Cl)ccc21` (configuration not stated), for which the inhibition is 90.3%.
The same measure for `CC1=CC(=O)C=C(C)C1=NOS(=O)(=O)c1ccccc1`: 53.9%; for `CCCCCCCCCCCCCCCC[n+]1ccc(/C=N/O)cc1`: 99.1%.
Consider `Cc1cccc2sc(N(CCCN(C)C)C(=O)c3sc4ccccc4c3Cl)nc12`, for which the inhibition was 96.8%.
Next, `CCCCCCOc1ccc(/C(C)=N/NC2=NCCN2)cc1`: 95.9%; `Cc1cc(Nc2ccccc2)nc2cc(O)ccc12`: 51.4%.
The same measure for `Cc1c(Cl)sn(-c2ccc(Cl)cc2)c1=O`: 103%.
The same measure for `COc1ccc(Nc2cc(C)c3ccc(O)cc3n2)cc1`: 80.1%.
With `CC1CCN(CCOc2ccc(OCc3ccccc3)cc2)CC1`, the inhibition was found to be 51.4%.
For the compound `CC1(C)COC(/C=C/c2ccc([N+](=O)[O-])cc2)=N1`, the inhibition was 90.3%.
The same measure for `CC1CCc2nc3sc4c(c3c(N)c2C1)CCCC4` (configuration not stated): 64.6%; for `COc1ccccc1NC1=C(N2CCCCC2)C(=O)c2ccccc2C1=O`: 53.9%; for `CC1CCN(c2nc(CN3CCCCC3)nc3scc(-c4ccccc4)c23)CC1`: 71%.
In the case of `S=C1SCN(Cc2cccnc2)CN1Cc1cccnc1`, the inhibition stood at 117%.
As for `Cc1ccc(OCCCCN(C)Cc2ccccc2)c(Br)c1`, the inhibition amounted to 81%.
The same measure for `c1ccc2c(Nc3nc(N4CCOCC4)c4ccccc4n3)cccc2c1`: 92.7%; for `CC1CCC2C(=O)N(c3ccc(C(=O)Oc4cccc5cccnc45)cc3)C(=O)C2C1` (configuration not stated): 70.5%.
The same measure for `COc1ccc(CCN(C)C2CC(=O)N(c3ccccc3)C2=O)cc1OC` (configuration not stated): 116%; for `O=C(c1nnsc1S(=O)c1ccc(Cl)cc1)N1CCOCC1` (configuration not stated): 114%.
Turning to `COc1ccccc1N1CCN(CCCCOc2cccc3ccccc23)CC1`, the inhibition was 86.2%.
Next, `Cc1ccc(-n2c(Cl)c(Cl)nc(Cl)c2=O)cc1`: 116%; `CCCCCCCCNC(C)C(O)c1ccc(SC(C)C)cc1` (configuration not stated): 87.4%; `CN(C)CCCN(C(=O)CCOc1ccccc1)c1nc2c(F)cccc2s1`: 109%.
Next, `Nc1ccc2c(c1)C/C(=C/c1ccco1)C2=O`: 66.9%; `OC(CNCCc1ccc(C(F)(F)F)cc1)COc1cccc2ccccc12` (configuration not stated): 111%.
The same measure for `NNC(=S)NCc1ccc2c(c1)OCO2`: 69.6%; for `CN(C)CCNC=C(C(=O)Nc1ccc(Cl)cc1Cl)C(=O)Nc1ccc(Cl)cc1Cl`: 104%.
As to `CC(=O)N(C1=C(Cl)C(=O)c2ccccc2C1=O)C1CCCCC1`, the inhibition was found to be 107%.
As for `NCCS`, the inhibition was 57.1%.
Next, `CCCNC(=O)c1nnsc1S(=O)(=O)c1ccc(Cl)cc1`: 114%.
Consider `O=C(/C=C/c1cccc([N+](=O)[O-])c1)c1ccco1`, for which the inhibition amounted to 71.3%.
In the case of `O=c1[nH][nH]c(-c2ccccc2O)c1C(C[N+](=O)[O-])c1ccc(Cl)cc1Cl` (configuration not stated), the inhibition was 61.4%.
The same measure for `CN1CCN(C2=C(Cl)C(=O)C(c3cnc(N4CCCCC4)s3)=C(Cl)C2=O)CC1`: 105%.
Next, `O=C(COC(=O)/C=C/c1cccs1)Nc1nc(-c2ccccc2)cs1`: 66.4%; `Cc1ccc(NC(=O)CN(C)C(=O)COc2cccc3cccnc23)cc1`: 63.1%; `COC(=O)C1(C(C[N+](=O)[O-])c2ccc(C)cc2)C(=O)NCC1c1ccco1` (configuration not stated): 53.3%.
The same measure for `CCOC(=O)C(=O)NNc1ccc(Cl)cc1`: 70.1%.
Take `C=CCNC(=S)N/N=C(\C)c1ccccn1`: the inhibition is 85.6%.
The same measure for `CNC(CC(=O)c1ccc([N+](=O)[O-])cc1)C(Cl)(Cl)Cl` (configuration not stated): 82%; for `N/C(Cc1ccc([N+](=O)[O-])cc1)=N\OC(=O)c1ccccc1Br`: 62.7%.
The same measure for `CCC(C(=O)OC)n1cnc2scc(-c3ccc(C)c(C)c3)c2c1=O` (configuration not stated): 95.6%; for `O=C1C=CCC(/C=C/c2ccccc2)O1` (configuration not stated): 102%; for `CN(C)CCCN(C(=O)CCS(=O)(=O)c1ccccc1)c1nc2cc3c(cc2s1)OCO3`: 111%.
As for `C(=C\c1nc(N2CCCCCC2)c2ccccc2n1)/c1ccccc1`, the inhibition stood at 66.7%.
The same measure for `CC1=C/C(=N\OS(=O)(=O)c2ccccc2)C(C(C)C)=CC1=O`: 55.3%.
Next, `CCOC(=O)C(=Cc1cc(=O)c(OC)co1)C(=O)OCC`: 101%; `CCc1cc(OCCCCNCc2ccccc2)ccc1Cl`: 111%.
The same measure for `COC(=O)Cn1nc(-c2ccccc2)c2ccccc21`: 116%; for `CCOC(=O)C(C(=O)OCC)C(C(=O)OCC)N1CCOCC1` (configuration not stated): 71.2%.
